PubChem BioAssay AID493208 (National Center for Advancing Translational Sciences (NCATS), 2011)
Out of some 44,000 compounds screened, about 340 (0.77%) were called active. About 5% were inconclusive and are not listed. Calls come from the whole dose curve; as a rule, active = well fitted inhibition curve with a large enough effect; inconclusive = small, poorly fitted or top-dose-only effect; inactive = flat fitted curve, though single readings scatter. The list shows a part of the results.

Assay: Acumen qHTS Assay for Inhibitors of the mTORC1 Signaling Pathway in MEF (Tsc2-/-, p53-/-) Cells: Sytravon;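 note: plate controls were DMSO for no effect and rapamycin for full effect; nearly all actives have a fitted effect of over 50% in size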
Conditions: phospho-rpS6 immunofluorescence/PI, 24 h; series mostly up to 38.3 µM; activity change, negative = inhibition: at the top concentration
How it was run: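 Compounds act on Tsc2-/-, p53-/- fibroblasts carrying an empty vector for 24 h before fixation and dual staining for phospho-S6 and DNA (propidium iodide). Values are percentages of cells above a rapamycin-defined pS6/PI threshold.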

Activity change, negative = inhibition, inactive:
CC(=O)c1ccc(NC(=O)Nc2ccc3snnc3c2)cc1 -5.97%
Cc1cccc(C)c1-n1ncc(C(=O)NCCCN2CCCCC2)c1C1CCN(C(=O)OC(C)(C)C)CC1 -0.486%
CCCCOc1ccc(C(=O)NCC(c2ccc(Cl)cc2)N2CCOCC2)cc1 (configuration not stated) -20.9%
O=C(Nc1ccc(Oc2ccccc2)cc1)c1ccc(F)c(S(=O)(=O)N2CCN(c3cccc(Cl)c3)CC2)c1 -0.351%
COC(=O)c1nnn(-c2cccc(C)c2)c1N 3.93%
CC(C)Oc1ccc(CNC(=O)CN2C(=O)CCn3nc(-c4cn(C)c5ccccc45)cc32)cc1 -6.29%
COc1ccc(-n2c(SCc3nc(-c4ccc(C)cc4)no3)nnc2-c2ccccc2)cc1 2.71%
CCOC(=O)c1ccc(NC(=O)CN(Cc2ccc(C)cc2)S(=O)(=O)c2ccc(C)cc2)cc1 20.5%
COC(=O)c1ccc(NC(=O)CSc2n[nH]c(-c3ccccc3)n2)cc1 -2.78%
CC1CN(C(=O)Nc2ccc(C(=O)NCc3ccccc3F)cc2)c2ccccc2S1 (configuration not stated) -8.14%
Fc1ccccc1N1CCN(Cc2nnc(-c3ccc4c(c3)OCO4)o2)CC1 -4.8%
Cc1ccccc1OCC(=O)Nc1ccc2oc(-c3ccc(F)cc3)nc2c1 7.26%
O=C(Nc1nc2c(Cl)cccc2s1)c1ccc(S(=O)(=O)N2CCc3ccccc32)cc1 -16.1%
Cc1ccc(C)c(N2C(=O)N(Cc3ccccc3C)c3ccccc3S2(=O)=O)c1 -0.729%
O=C(CSc1oc(-c2ccccc2)nc1S(=O)(=O)c1ccc(Br)cc1)c1ccccc1 1.86%
COc1ccc(C)cc1NC(=O)COc1cc(=O)n(C)c2ccccc12 -4.32%
COc1ccc(NC(=O)c2ccco2)cc1NC(=O)COc1cccc(C)c1C -9.05%
CCc1ccc(NC(=O)CN(C)S(=O)(=O)c2ccc3c(c2)c(=O)n(C)c(=O)n3C)cc1 -7.2%
CCOC(=O)c1cc2c(=O)n3ccccc3nc2n(Cc2ccco2)c1=NC(=O)c1ccc(Br)cc1 -1.69%
O=C(Nc1ccc(Br)cc1)c1ccc(F)c(S(=O)(=O)NC2CCCCCC2)c1 -16.7%
Cc1ccccc1-c1nc(SCC(=O)NCc2ccc(F)cc2)c2c(=O)n(C)c(=O)n(C)c2n1 6.54%
COc1ccc(-c2nc(-c3cc4cc(Br)ccc4oc3=O)cs2)cc1 -0.333%
COc1ccccc1N1CCN(c2nc3ccccc3n3cnnc23)CC1 -1.9%
Cc1cccc(C)c1NC(=O)Nc1csc2c1CCCC2 0.87%
O=C(CCn1nc(-c2ccccc2)c2ccccc2c1=O)Nc1ccccc1 2.79%
Cc1ccc(-n2nc(CO)c(C(=O)NCc3ccccn3)n2)cc1 -5.48%
COc1ccc(OCc2ccc(-c3nc(C#N)c(N4CCN(c5ccccc5)CC4)o3)o2)cc1 2.74%
Cc1cc(-c2ccc(C)c(S(=O)(=O)Nc3cccc(C)n3)c2)on1 3.88%
CC(=O)Nc1ccc(NC(=O)c2cc(=O)c3ccccc3o2)cc1 2.83%
CCc1ccc(-n2nnc(-c3nsc(NC(=O)c4ccccc4Cl)n3)c2C)cc1 8.93%
Cc1ccc2c(c1)N(C(=O)N1CCC(C(=O)NCc3cccc(Br)c3)CC1)CCO2 5.45%
CCOC(=O)c1cc(-c2ccccc2)n(CCC(=O)NCc2ccccc2Cl)c1C -6.5%
COc1ccc(Nc2nc3ccccc3nc2NS(=O)(=O)c2ccc(C)cc2)c(OC)c1 5.99%
O=C(COc1ccccc1F)OCc1cc(=O)n2nc(C3CCCCC3)sc2n1 -13.1%
CCN(CC)c1cc(C)c2cc(NC(=O)c3cccc(OC)c3OC)ccc2n1 0%
COc1cccc2cc(S(=O)(=O)c3ccc(F)c(C)c3)c(=O)oc12 -8.63%
O=C1Nc2ccccc2Oc2cc(Oc3cccc(Cl)c3)ccc21 -21.5%
Cc1cc(C)c(S(=O)(=O)N2CCC(n3c(C(F)(F)F)nc4cccnc43)CC2)c(C)c1 3.76%
Cc1nc2nc(SCC(=O)N(C)Cc3ccccc3)nn2c(C)c1Cc1ccccc1Cl 1.48%
CCCCN(C)CCNC(=O)C1CCCN(S(=O)(=O)c2cccc3nsnc23)C1 (configuration not stated) 0.381%
Cc1c(Cl)cccc1-c1ccc(CNCCCSc2nnnn2C)o1 0.29%
CCc1ccc(S(=O)(=O)c2cn(C)c3cc(N4CCOCC4)c(F)cc3c2=O)cc1 0.505%
Fc1ccc(N2CCN(c3nc4ccccc4c4nc(-c5cccnc5)nn34)CC2)cc1 -14.1%
Cc1cn2c(=O)cc(COc3cccc(NC(=O)c4ccc(C(C)(C)C)cc4)c3)nc2s1 -14.8%
CCOC(=O)C1CCN(CC(=O)Nc2cc(C)c3c(=O)oc4ccccc4c3n2)CC1 2.29%
C=CCc1ccccc1OCCSc1nc(-c2cccs2)nc2cc(=O)[nH]n12 3.54%
CCOc1ccc(NC(=O)c2c(C)nn(-c3ccc(F)cc3)c2-n2cccc2)cc1 -2.98%
Cc1nn(-c2ccccc2)c2nc(C3CC3)cc(C(=O)Nc3ccc(F)cc3)c12 5.48%
CCc1c(C)sc2c1CCN(Cc1ccccc1)C2c1ccccc1 (configuration not stated) 4.44%
O=C(Nc1ccc(OCc2cc(=O)n3c4c(sc3n2)CCCC4)cc1)c1cccc(F)c1 1.25%
Cc1ccc(NC(=O)CN(C)S(=O)(=O)c2ccc3c(c2)n(C)c(=O)c(=O)n3C)cc1F -22%
CC1(C)Cc2c(c(N3CCOCC3)nc3sc(C(=O)Nc4ccc(Cl)cc4)c(N)c23)CO1 2.69%
CCOc1ccc(S(=O)(=O)Nc2cccc(-c3ccc(N4CCCC4)nn3)c2)cc1 0.666%
Cc1cccc(NC(=O)CSc2nc(-c3cccc(C)c3)nc3c2Cc2c(CO)cnc(C)c2O3)c1 -0.619%
CCc1nc2ccc(C(=O)NCc3ccc(OC)c(OC)c3)cc2nc1CC 0.312%
Cc1ccc2c(c1)-c1onc(C(=O)N(C)c3cccc(C(F)(F)F)c3)c1CO2 0%
Cc1ccccc1CNC(=O)Cn1c(C)c2cnn(-c3ccccc3)c(=O)c2c1C -2.18%
CCCCOc1ccc(C(=O)Nc2cc(-c3ccc(C)cc3)no2)cc1 1.06%
CCOC(=O)c1sc(N2C(=O)c3oc4ccccc4c(=O)c3C2c2ccc(C(C)(C)C)cc2)nc1C (configuration not stated) -0.906%
CCOC(=O)COc1ccc(/C=C(\C#N)c2nc3ccc(C)cc3[nH]2)cc1OC -6.4%
Cc1cccn2c3c(c(=O)nc12)C(c1cccc(F)c1)CC(=O)N3 (configuration not stated) -4.01%
CCC1CCCCN1Cc1c(O)ccc2c(=O)c(Oc3ccccc3Cl)c(C(F)(F)F)oc12 (configuration not stated) 1.8%
Cc1ccc(CNC(=O)c2ccc3c(c2)CCN3S(=O)(=O)c2ccccc2)cc1 -2.92%
Cc1ccc(C)c(NC(=O)CSc2c(C)cnc3c2c(=O)n(C)c(=O)n3C)c1 -3.32%
O=C(Cn1cnc2nc3c(cc2c1=O)CCCC3)N1CCN(c2cccc(C(F)(F)F)c2)CC1 -11.5%
CCOc1ccc(OCC)c(NS(=O)(=O)c2c(C)[nH]c(=O)[nH]c2=O)c1 -4.08%
CCC(=O)N1c2ccccc2CC1C(=O)N1CCN(c2cccc(OC)c2)CC1 (configuration not stated) 5.52%
COc1ccc(CCNC(=O)c2csc3c2CCCCC3)c(OC)c1 -4.27%
COc1ccc(Cn2c(C(=O)O)c(CNC3CCCC3)c3ccc(C)cc32)cc1 -3.15%
Cc1ccc(N(C)C(=O)CC(C)S(=O)(=O)c2ccc3c(c2)NC(=O)CO3)cc1 (configuration not stated) 4.73%
CCc1ccc(NC(=O)Cn2ccn(-c3ccc(OC)cc3)c(=O)c2=O)cc1 -2.22%
Cc1cccc(NC(=O)CC2Nc3cccc4cccc(c34)NC2=O)c1 (configuration not stated) -12.5%
COC(=O)c1cc2oc(C)cc2n1Cc1cc(C)ccc1C -1.11%
Cc1ccc(C)c(NC(=O)Cn2ncc3c([nH]c4ccccc43)c2=O)c1 -9.01%
CCOc1ccc(NC(=O)CSc2nc(-c3cccc(Cl)c3)nc3c2Cc2c(CO)cnc(C)c2O3)cc1 -2.61%
CCCCN1C(=O)CN(C2CCCCCC2)C(=O)C1c1ccc(OCC)c(OC)c1 (configuration not stated) 8.11%
COCCN(Cc1ccco1)C(=O)Cn1ncc2c([nH]c3ccccc32)c1=O -19.9%
Cc1cc2c(cc1S(=O)(=O)CCC(=O)N(C)C1CCCCC1)OCC(=O)N2 -2.11%
Cc1ccc(-c2nnn3c2nc(NCCc2ccccc2)c2ccccc23)cc1 -1.84%
CN(c1ncnc2c1c(-c1ccccc1)cn2-c1cccc(Cl)c1)C1CCCCC1 6.28%
COc1cccc(NC(=O)CCc2nc(-c3ccc(C(C)(C)C)cc3)no2)c1 -15%
CCc1ccc(CN(Cc2ccco2)C(=O)COc2ccccc2Cl)cc1 -26.3%
Cc1ccc(-c2nnc(Nc3cccc(Br)c3)c3ccccc23)cc1S(=O)(=O)N1CCCCC1 9.15%
Cc1cccc(-n2c(=O)c3c(c4cc(C)ccc4n3C)n(C)c2=O)c1 -0.791%
Cc1c(Cl)cccc1NC(=O)N1CCC(CN2CCOCC2)CC1 -2.84%
Cc1ccc(C)c(C(=O)CSc2nc(-c3ccccc3)nc3c2CCCC3)c1 -18.5%
CC(=O)OCc1cnc(C)c2oc(=O)c(C(=O)Nc3cc(F)ccc3C)cc12 1.25%
O=C(c1ccc([N+](=O)[O-])cc1)N(Cc1ccco1)c1ccccn1 -2.84%
CC(C)C(=O)Nc1nnc(S(=O)(=O)N(C)Cc2ccc(F)cc2)s1 -4.15%
CCOc1ccccc1NC(=O)C1CCCN(c2ncnc3onc(-c4ccc(F)cc4)c23)C1 (configuration not stated) 1.2%
COc1ccc(NC(=O)C2CCN(S(=O)(=O)c3cn(C)cn3)CC2)cc1Cl 1.53%
NC(=O)CN1C(=O)C2(SCC(=O)N2c2cccc(F)c2)c2ccccc21 (configuration not stated) 1.27%
Cc1ccc(NC(=O)CSc2nnc(COc3ccc(Cl)cc3)o2)cc1 -0.988%
COc1ccc(C2C(C(=O)Nc3ccc(C)cc3C)=C(C)Nc3nc(SC)nn32)cc1OC (configuration not stated) -1.93%
CCCCn1c(=O)c2oc3ccccc3c2n(Cc2ccc(OC)cc2)c1=O -8.25%
Cc1cc(C)cc(NC(=O)c2cn3c4c(ccc(Cl)c4c2=O)OC(C)C3)c1 (configuration not stated) -11.1%
COc1ccc(S(=O)(=O)Nc2ccc3c(c2)sc(=O)n3C)cc1Cl -14.2%
